# Data: the supplement of paper PMC8728848
# The other results are listed elsewhere or left out.
# Columns and labels:
# Assay in all cases: glycan array binding signal (z-score within array); higher = stronger binding
# Conditions in all cases: glycan notation: IUPAC condensed, linker removed
# [1] = target: Neu5Ac(a2-8)Neu5Ac
# Outline: (§1)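 Glycan array data were curated from 3228 arrays in the Consortium for Functional Glycomics database and kept only where the protein sequence was available. Glycan names were converted to IUPAC-condensed notation, and columns mapping to the same glycan were averaged. The binding signal is a within-array Z-score, averaged across arrays of the same protein sequence at different concentrations or buffers and across linkers. Negative Z-scores can be read as non-binding.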
# [2] = target: Neu5Ac(a2-8)Neu5Ac(a2-3)Gal(b1-3)GalNAc(b1-4)[Neu5Ac(a2-3)]Gal(b1-4)Glc
# Outline: as §1
# [3] = target: Neu5Ac(a2-8)Neu5Ac(a2-3)Gal(b1-3)GalNAc(b1-4)[Neu5Ac(a2-8)Neu5Ac(a2-3)]Gal(b1-4)Glc
# Outline: as §1
# [4] = target: Neu5Ac(a2-8)Neu5Ac(a2-3)Gal(b1-4)Glc
# Outline: as §1
# [5] = target: Neu5Ac(a2-8)Neu5Ac(a2-3)Gal(b1-4)GlcNAc
# Outline: as §1
# [6] = target: Neu5Ac(a2-8)Neu5Ac(a2-3)[Gal(b1-3)GalNAc(b1-4)]Gal(b1-4)Glc
# Outline: as §1
# [7] = target: Neu5Ac(a2-8)Neu5Ac(a2-3)[GalNAc(b1-4)]Gal(b1-4)Glc
# Outline: as §1
# [8] = target: Neu5Ac(a2-8)Neu5Ac(a2-8)Neu5Ac
# Outline: as §1
# [9] = target: Neu5Ac(a2-8)Neu5Ac(a2-8)Neu5Ac(a2-3)Gal(b1-4)Glc
# Outline: as §1
# [10] = target: Neu5Ac(a2-8)Neu5Ac(a2-8)Neu5Ac(a2-3)[Gal(b1-3)GalNAc(b1-4)]Gal(b1-4)Glc
# Outline: as §1
# [11] = target: Neu5Ac(a2-8)Neu5Ac(a2-8)Neu5Ac(a2-3)[GalNAc(b1-4)]Gal(b1-4)Glc
# Outline: as §1
# [12] = target: Neu5Ac(a2-8)Neu5Ac(a2-8)Neu5Ac(a2-8)Neu5Ac(a2-3)[GalNAc(b1-4)]Gal(b1-4)Glc
# Outline: as §1
# [13] = target: Neu5Ac(a2-8)Neu5Gc(a2-3)Gal(b1-4)GlcNAc
# Outline: as §1
# [14] = target: Neu5Ac(b2-6)Gal(b1-4)GlcNAc
# Outline: as §1
# [15] = target: Neu5Ac(b2-6)GalNAc
# Outline: as §1
# [16] = target: Neu5Ac9Ac(a2-3)Gal(b1-3)GlcNAc
# Outline: as §1
# [17] = target: Neu5Ac9Ac(a2-3)Gal(b1-4)GlcNAc
# Outline: as §1
# [18] = target: Neu5Ac9Ac(a2-6)Gal(b1-4)GlcNAc
# Outline: as §1
# [19] = target: Neu5Gc(a2-3)Gal(b1-3)GlcNAc
# Outline: as §1
# [20] = target: Neu5Gc(a2-3)Gal(b1-3)[Fuc(a1-4)]GlcNAc
# Outline: as §1
# [21] = target: Neu5Gc(a2-3)Gal(b1-4)Glc
# Outline: as §1
# [22] = target: Neu5Gc(a2-3)Gal(b1-4)GlcNAc
# Outline: as §1
# [23] = target: Neu5Gc(a2-3)Gal(b1-4)GlcNAc(b1-3)Gal(b1-4)GlcNAc(b1-2)Man(a1-3)[Neu5Gc(a2-3)Gal(b1-4)GlcNAc(b1-3)Gal(b1-4)GlcNAc(b1-2)Man(a1-6)]Man(b1-4)GlcNAc(b1-4)GlcNAc
# Outline: as §1
# [24] = target: Neu5Gc(a2-3)Gal(b1-4)[Fuc(a1-3)]GlcNAc
# Outline: as §1
# [25] = target: Neu5Gc(a2-6)Gal(b1-4)GlcNAc
# Outline: as §1
# [26] = target: Neu5Gc(a2-6)GalNAc
# Outline: as §1
# [27] = target: Neu5Gc(a2-8)Neu5Ac(a2-3)Gal(b1-4)GlcNAc
# Outline: as §1
# [28] = target: Neu5Gc(a2-8)Neu5Gc(a2-3)Gal(b1-4)GlcNAc
# Outline: as §1
# [29] = target: Neu5Gc(a2-8)Neu5Gc(a2-3)Gal(b1-4)GlcNAc(b1-3)Gal(b1-4)GlcNAc
# Outline: as §1
# [30] = target: Neu5Gc(a2-8)Neu5Gc(a2-6)Gal(b1-4)GlcNAc
# Outline: as §1
# [31] = target: Neu5Gc(b2-6)Gal(b1-4)GlcNAc
# Outline: as §1
binder,measurement,setting,value
LecB PA14 (Pseudomonas aeruginosa) (protein) MATQGVFTLPANTQFGVTAFANSAGTQTVNVQVNNETVATFTGQSTNNAIIGSKVLNSGGGGKVQILVSVNGRSSDLVSAQVILANELNFALVGSEDSTDNDYNDAVVVINWPLG,glycan array binding signal (z-score),[1],-0.161
same,glycan array binding signal (z-score),[2],-0.711
same,glycan array binding signal (z-score),[3],0.585
same,glycan array binding signal (z-score),[4],-0.441
same,glycan array binding signal (z-score),[5],-0.439
same,glycan array binding signal (z-score),[6],-0.295
same,glycan array binding signal (z-score),[7],-0.147
same,glycan array binding signal (z-score),[8],-0.259
same,glycan array binding signal (z-score),[9],-0.555
same,glycan array binding signal (z-score),[10],-0.695
same,glycan array binding signal (z-score),[11],-0.494
same,glycan array binding signal (z-score),[12],-0.549
same,glycan array binding signal (z-score),[13],-0.673
same,glycan array binding signal (z-score),[14],-0.066
same,glycan array binding signal (z-score),[15],0.388
same,glycan array binding signal (z-score),[16],-0.41
same,glycan array binding signal (z-score),[17],-0.339
same,glycan array binding signal (z-score),[18],-0.872
same,glycan array binding signal (z-score),[19],0.419
same,glycan array binding signal (z-score),[20],0.603
same,glycan array binding signal (z-score),[21],-0.693
same,glycan array binding signal (z-score),[22],-0.411
same,glycan array binding signal (z-score),[23],-0.365
same,glycan array binding signal (z-score),[24],-0.557
same,glycan array binding signal (z-score),[25],-0.306
same,glycan array binding signal (z-score),[26],-0.209
same,glycan array binding signal (z-score),[27],-0.125
same,glycan array binding signal (z-score),[28],0.236
same,glycan array binding signal (z-score),[29],-0.746
same,glycan array binding signal (z-score),[30],-0.439
same,glycan array binding signal (z-score),[31],-0.805
